# Source: PubChem BioAssay AID488969 (Vanderbilt High Throughput Screening Facility, 2010)
# Whole data set: some 110,000 compounds, median “z-score” near -0.1, cut for the highest 2% near 2. The list shows a part of the results.
# Biological target: Metabotropic glutamate receptor 8 (Rattus norvegicus) (UniProt P70579)
# Experiment: rat mGluR8 modulators via GIRK flux, primary screen, cell-based, thallium flux, HTS (AID 488969)
# Conditions: HEK293 rat mGluR8, GIRK (G protein-gated inwardly rectifying potassium channel) thallium flux, FluoZin2; at 10 µM; stronger effect = higher value; submaximal glutamate (EC20) added with thallium
# Chain of UniProt P70579 (P70579 whole entry, looked up): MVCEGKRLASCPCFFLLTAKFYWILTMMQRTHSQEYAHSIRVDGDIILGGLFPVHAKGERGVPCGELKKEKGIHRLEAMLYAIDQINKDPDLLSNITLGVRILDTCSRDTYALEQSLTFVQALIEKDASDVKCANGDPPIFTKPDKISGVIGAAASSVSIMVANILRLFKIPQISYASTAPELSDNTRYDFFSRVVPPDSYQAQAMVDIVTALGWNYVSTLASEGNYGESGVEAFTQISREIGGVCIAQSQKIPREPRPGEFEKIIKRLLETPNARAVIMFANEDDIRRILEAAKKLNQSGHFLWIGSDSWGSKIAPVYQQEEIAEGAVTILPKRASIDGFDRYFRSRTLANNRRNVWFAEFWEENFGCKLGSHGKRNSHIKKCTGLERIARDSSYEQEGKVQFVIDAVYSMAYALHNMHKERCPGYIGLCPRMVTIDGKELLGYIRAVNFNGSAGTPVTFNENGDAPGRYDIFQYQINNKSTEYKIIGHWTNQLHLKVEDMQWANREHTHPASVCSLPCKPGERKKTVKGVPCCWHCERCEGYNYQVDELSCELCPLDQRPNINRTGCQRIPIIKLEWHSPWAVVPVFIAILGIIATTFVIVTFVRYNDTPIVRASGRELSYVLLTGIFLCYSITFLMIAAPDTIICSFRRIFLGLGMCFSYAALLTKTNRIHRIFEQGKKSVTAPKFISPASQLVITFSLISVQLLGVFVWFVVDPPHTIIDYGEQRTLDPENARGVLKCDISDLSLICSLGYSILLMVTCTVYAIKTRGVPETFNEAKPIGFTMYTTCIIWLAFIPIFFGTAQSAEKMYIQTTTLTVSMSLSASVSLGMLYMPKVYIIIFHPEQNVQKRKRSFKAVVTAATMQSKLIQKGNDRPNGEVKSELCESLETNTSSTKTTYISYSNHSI
row,Structure (SMILES),z-score
1,Clc1ccc(-n2ncc3c(NCc4ccccn4)ncnc32)cc1,1.73
2,CCC(C)C(NC(=O)C1CCC(C)CC1)C(=O)NC(CCSC)C(=O)OC (stereo not given),-0.493
3,CCCn1nnnc1-c1ccc(Cl)cc1,0.0464
4,Cc1[nH]c(=O)[nH]c1CN1CCCCC1,0.0385
5,COc1ccc(C2CC(c3ccc(OC)cc3)n3nc(NC(=O)c4cccs4)nc3N2)cc1 (stereo not given),-0.138
6,O=C(CSc1nc(-c2cccs2)cc(C(F)(F)F)n1)NCc1ccccc1,-0.654
7,CN(Cc1ccccc1)C(=O)Cn1cccc1C(=O)c1ccccc1,-0.0101
8,COc1ccc(NC(=O)c2ccccc2O)c(OC)c1,0.531
9,O=C1C2C3C=CC(C3=C3CCCCC3)C2C(=O)N1Cc1ccccc1 (stereo not given),-0.447
10,Cc1ccc(N(CC(=O)NCc2ccc3c(c2)OCO3)S(=O)(=O)c2c(C)noc2C)cc1,-0.388
11,CCOc1ccc(-c2[nH]ncc2-c2csc(C)n2)c(O)c1,-0.285
12,CCOC(=O)c1cc2c(=O)n3ccccc3nc2n(CCCOC)c1=NC(=O)c1cccnc1,0.523
13,C=CCNC(=O)C(C#N)c1nc2ccccc2nc1N1CCCCCC1 (stereo not given),-0.512
14,Cc1ccc(-n2c(Cc3cccn3C)nnc2SCC(=O)Nc2cc(C)on2)cc1,-0.345
15,COC(=O)c1ccccc1NC(=O)Nc1ccc(C(=O)N2CCCC2)cc1,0.405
16,CCOC(=O)c1nc2cc3n(c(CC(C)C)c-2c1C)CC(C)=C3C,0.604
17,Cc1cc(SCC(=O)c2cccs2)n2nc(C)c(-c3ccc(Cl)cc3)c2n1,-0.373
18,CCn1cc(C(=O)Nc2sc(C)c(C)c2C(=O)OC)cn1,0.032
19,COc1ccc(OC)c(NC(=O)CCN2CCN(c3ccccc3F)CC2)c1,-0.262
20,C=CCOc1cccc(C2C(C(=O)c3ccco3)=C(O)C(=O)N2Cc2ccncc2)c1 (stereo not given),-0.882
21,Cc1cccc(NC(=S)NC2CC3CCCC(C2)N3Cc2cccs2)c1C (stereo not given),-0.0629
22,CC(C)OC(=O)c1cc(NC(=S)Nc2ccc([N+](=O)[O-])cc2)cc(C(=O)OC(C)C)c1,-0.156
23,Cn1c(=O)c2c(nc(SCC(=O)NCc3ccco3)n2C)n(C)c1=O,0.332
24,Cc1nn(Cc2ccccc2Cl)c2sc(C(=O)OC3CCCC3=O)cc12 (stereo not given),0.555
25,Cc1c(NC(=S)NC(=O)c2ccco2)c(=O)n(-c2ccccc2)n1C,-0.135
26,CCOC(=O)c1c(N)c(C#N)cn1-c1ccccc1,0.195
27,[O-]/[N+](=C\c1ccc(F)cc1)c1ccccc1,0.527
28,O=C1CCC(=O)N1c1ccc(CSc2nnnn2C2CCCCC2)cc1,-0.0111
29,CCC1(CC)NC(=O)N(CC(=O)OCC(=O)Nc2ccc(C(F)(F)F)cc2)C1=O,0.255
30,N#CCSc1nc2c(c(=O)n1Cc1ccccc1)C1(CCCC1)Cc1ccccc1-2,-0.165
